Experimental data published in PMC12136788.
This is one part of the list.

B1: chr3:130733575:130733676:-|CDS|ENSG00000196455|msi1|total|mutant (ssRNA)
RNA: GGGAGUUCUACAGUCCGACGAUCCGUCAAAGAGGUUCCUCGUAAUGAUAUCAAUAUUUAUCCGGAAUACAUUCUGCCAGGCACCGCCCACUCCGCCCAAGAUGAUGCUACUAUCGUCCGACCCGCCUAUGCUGGUAAGAGUUUCAACAGAGGAUUGAGCAUCA
B2: chr1:248623556:248626177:-|three_prime_utr|ENSG00000279301|control|control|control (ssRNA)
RNA: GGGAGUUCUACAGUCCGACGAUCUGCAGAGAUCUUUCAGUGAAGUAUCAAAAAUGGUUUAUUAUGAAGUUAAAUAAUUUAUCUAGUCUUUUUAUUUAGGGAAGAAAAACCCCAAAUAUUAGAGUUCACAGCAACCUUUCACUCCAACAGAGGAUUGAGCAUCA
B3: chr1:42926584:42926685:-|3pUTR|ENSG00000117394|msi1|total|mutant (ssRNA)
RNA: GGGAGUUCUACAGUCCGACGAUCGCCUGAGGGUGGAGACUAAGCCCUGUCGAGACACUUGCCUUCUUCACCCAGCUAAUCUGCCGGGCUGGACCUAUGUCCUAAGGACACACUAAUCGAACUAUGAACUACAAAGCUUCUAUCCAACAGAGGAUUGAGCAUCA
B4: chr8:73046310:73046411:+|3pUTR|ENSG00000147601|msi1|total|mutant (ssRNA)
RNA: GGGAGUUCUACAGUCCGACGAUCUUGUAUUCUUUAAGAACCUUAUUUUGAUAAAAUGUAAAUUUGUUGAACCCUGCCACAUUCCGUAUCCCCACCCCCAAAUCCUGUUCCAAUGAAAAAAUUAAAACCUGAUACGAAAAAAAACAACAGAGGAUUGAGCAUCA
B5: chrX:106032434:106033499:-|three_prime_utr|ENSG00000123561|control|control|control (ssRNA)
RNA: GGGAGUUCUACAGUCCGACGAUCGGAAAAAGGCCAUUGGCUAAUUGCACGUGUGUAUUGCAAUGGGAAAUAAAUAAAUAAUAUAGCCUGGUGUGAUUGAUGUGAGCUUGGACUUGCAUUCCCUUAUGAUGGGAUGAAGAUUGACAACAGAGGAUUGAGCAUCA
B6: chr1:202892395:202892497:-|3pUTR|ENSG00000117153|unk|FALSE|unique (ssRNA)
RNA: GGGAGUUCUACAGUCCGACGAUCGCGAGAAGUGACCAUUGUUGGAGCACCAUCCAGAGCUAGUGACCAGUCCAGUGGACAGUUAGUGGGAGAAUCAAAAAUCCUUUCCAGAAUGUCUGUUUCUCACUAUGUGCACCGGGUGAUCAACAGAGGAUUGAGCAUCA
B7: chr5:91374913:91375023:-|CDS|ENSG00000113369|unk|total|mutant (ssRNA)
RNA: GGGAGUUCUACAGUCCGACGAUCGAGACGUGGAAUGGCAAGUUGCUGAAAAUUCCACCAGUUUCUCCCUCUAUCCUCGACUGCCGUAUAAUCCGCGUGGAAUAUUCACUAAUGGUAUGUACACAUUUAAGAGGUUUUUUCCUUCAACAGAGGAUUGAGCAUCA
B8: chr4:81602736:81602922:-|CDS|ENSG00000138670|control|control|control (ssRNA)
RNA: GGGAGUUCUACAGUCCGACGAUCUUCCAUGUACAGCAGCAUAACUCCAGUUUGCUUUCCAAGCCCUCUGAUUGAGAAGCCAAUAGGCAAAGUAAGAAUGAACCUACUUUUAUCAGACACUAUGAUUCGAGCCAGUUGGCUGUUCAACAGAGGAUUGAGCAUCA
B9: chr17:30248266:30248367:-|3pUTR|ENSG00000108578|msi1|FALSE|unique (ssRNA)
RNA: GGGAGUUCUACAGUCCGACGAUCUUGGGUGAGAACAACCAAAAUCUUAUCAUGGUCUCAGUCAUAAUCAUUAGGGGGAACUCUAGCCAAAUGGUUUAACUUCUGCCUGUGGAACUGGGGAUUGGGUGGGCAGGAAAAGGUGAUCAACAGAGGAUUGAGCAUCA
B10: chr12:95077336:95077437:-|3pUTR|ENSG00000180263|msi1|FALSE|unique (ssRNA)
RNA: GGGAGUUCUACAGUCCGACGAUCUCCUCAUUGACCCAUCCGCAUCUCUGUUUAUCCAAGACUUCUCUGUGAUAGCUGACCCUUAGUCUUUCUCUCCCCUAUUCCUCCAGACUAGAUCCUGUCUCCUUCCUGCAGCCCCGACACCAACAGAGGAUUGAGCAUCA
B11: ENSG00000070961:be:win_2701|CDS|ENSG00000070961|bound_else_gene|NA|bound_elsewhere_windowed (ssRNA)
RNA: GGGAGUUCUACAGUCCGACGAUCGCUCUGGCAACGGAACCACCCACUGAGUCUCUCUUGCUUCGGAAACCUUAUGGUAGAAAUAAGCCUCUCAUCUCACGUACAAUGAUGAAGAAUAUUUUGGGUCAUGCAUUCUAUCAACUUCAACAGAGGAUUGAGCAUCA
B12: ENSG00000107863:be:win_4901|CDS|ENSG00000107863|bound_else_gene|NA|bound_elsewhere_windowed (ssRNA)
RNA: GGGAGUUCUACAGUCCGACGAUCAAACCGACAGCGAGAGCGAGUUUCCCGUGUUCCCCACAGCCUUGACUUCAGAGAGGCUUUUCCGAGGAAAACUGCAAGAAGUGACUAAGAGCAGCCGGAGAAAUUCUGAAGGAAGUGAAUCAACAGAGGAUUGAGCAUCA
B13: ENSG00000198589:be:win_6001|CDS|ENSG00000198589|bound_else_gene|NA|bound_elsewhere_windowed (ssRNA)
RNA: GGGAGUUCUACAGUCCGACGAUCGGAUCGACACAUCCUGAAGCGACACUAAAAACAGCCGUGGAACAUGCCACAGAUGAAGAUAUCCUUGCUAAAGGAAAACAGUCCAUCAGGAGUCAGGCUUUAGGAAAUCAGAACUCAGAACAACAGAGGAUUGAGCAUCA
B14: chr2:171482635:171482736:+|3pUTR|ENSG00000115827|unk|total|mutant (ssRNA)
RNA: GGGAGUUCUACAGUCCGACGAUCCAAGAGUGUUUCAGAACCGGAUGUCUUAAGACUUCAGUCAUGUCAGAGAUUUUUUUUUUCCGGUGAUUAUUGAGUUUCUCCUUCUCCUUUAAGUCAUCACCUUCCUUUUAUGAAAUGAUACAACAGAGGAUUGAGCAUCA
B15: chr3:44491765:44499181:-|three_prime_utr|ENSG00000178917|control|control|control (ssRNA)
RNA: GGGAGUUCUACAGUCCGACGAUCACUAAUCACAGUGGAGACCAUACCUACUUGCUUUUCCUUGGGUCACUAAGGUGGGAGAGUAGGUGCAACUUAGUCUGAUCCUUACUUAGUAGGAAAUUGGGGAUUACAUCUGUCAUUAACCAACAGAGGAUUGAGCAUCA
B16: chr14:71589133:71589262:+|CDS|ENSG00000197555|unk|total|mutant (ssRNA)
RNA: GGGAGUUCUACAGUCCGACGAUCGAGACCGGUGGAGAAGGGGAGAGGAAAAUCAGCCUUUCAAAAUCAAAUUCUGGCUCCUUCCGUGGAUGUGAAAGUGCCUCCUUUGAGUCUACCCUCCGUUCCCAUUGCACAAAUGCAGGACAACAGAGGAUUGAGCAUCA
B17: ENSG00000107863:be:win_2101|CDS|ENSG00000107863|bound_else_gene|NA|bound_elsewhere_windowed (ssRNA)
RNA: GGGAGUUCUACAGUCCGACGAUCGGUACUUCAGAUUUAGAACUACCUGUCAGUCAAAGGAAUCAAGAUUUAAGUUUACAAGAGGCUGAAACUGAGCAAUCAGAUACUUUAGAUAAUAAAGAAGCUGUCAUCCUAAGGGAAAAACAACAGAGGAUUGAGCAUCA
B18: ENSG00000136451:be:win_2651|3pUTR|ENSG00000136451|bound_else_gene|NA|bound_elsewhere_windowed (ssRNA)
RNA: GGGAGUUCUACAGUCCGACGAUCUUUAAAUUUCUCCUUCCGUUUCUUAAGUAUUGCGCAGAUUUGUUCAACUUUGUAAAUAUGGACAUCACUUUUUUUUUCUUUGAGAAAACACUUGUAUCAGCUUUGUGGUGUUUUCAGGGACAACAGAGGAUUGAGCAUCA
B19: ENSG00000136451:be:win_2351|3pUTR|ENSG00000136451|bound_else_gene|NA|bound_elsewhere_windowed (ssRNA)
RNA: GGGAGUUCUACAGUCCGACGAUCGAAGUCAAGUGUGUGGACAGGCAAGCUCCUAAUAAACAGAGUCCAGUGGGAUUCCUAUUUAGGAGCCAAGGAGUACUUUGGAACAGUACAAAUAUAUUGCUUUAAAUUGGAAGACGCUGGCAACAGAGGAUUGAGCAUCA
B20: chr1:162783069:162783171:+|3pUTR|ENSG00000162733|unk|total|mutant (ssRNA)
RNA: GGGAGUUCUACAGUCCGACGAUCUGAAAGCCGUUCAAAUUUGAAUCCGAAGAAUGAAGCCCGGACUUAUUUGGAAAAGGAGACCGAAAAAAAAUGAUCAGAAACUGUGGGGCCUUAUUACCUUUGCAGUAAGUUAUCUUCUUCCAACAGAGGAUUGAGCAUCA
B21: chr12:125025615:125025697:+|3pUTR|ENSG00000184992|msi1_unk|total|mutant (ssRNA)
RNA: GGGAGUUCUACAGUCCGACGAUCGGACACAUUCCCAGAAGAGCGGAAAGAUCAUUGACGUGGAACUACACACGAAGUGUAAUCCGUGGGGGAAAAAAUAUUUUUUAAACAAAGGAUAUAACCAUAUUCCGUUGUACAGUAAGACAACAGAGGAUUGAGCAUCA
B22: chr17:34942483:34942643:-|CDS|ENSG00000132141|control|control|control (ssRNA)
RNA: GGGAGUUCUACAGUCCGACGAUCGAAAGAGAAAUUGGUAAAAGCUGAAAGAAAAUUUAUUGAAGAUAGAGUACAAAAAAUAAUAGACCUGAAGGACAAAGUCUGUGCUCAGUCAAAUAAAGGAUUUGUCGUCAUUAAUCAAAACAACAGAGGAUUGAGCAUCA

Biological target: T1, UNK ZnF1-6 (called full-length) (human, UniProt Q9C0B0 30-357)
T1 sequence: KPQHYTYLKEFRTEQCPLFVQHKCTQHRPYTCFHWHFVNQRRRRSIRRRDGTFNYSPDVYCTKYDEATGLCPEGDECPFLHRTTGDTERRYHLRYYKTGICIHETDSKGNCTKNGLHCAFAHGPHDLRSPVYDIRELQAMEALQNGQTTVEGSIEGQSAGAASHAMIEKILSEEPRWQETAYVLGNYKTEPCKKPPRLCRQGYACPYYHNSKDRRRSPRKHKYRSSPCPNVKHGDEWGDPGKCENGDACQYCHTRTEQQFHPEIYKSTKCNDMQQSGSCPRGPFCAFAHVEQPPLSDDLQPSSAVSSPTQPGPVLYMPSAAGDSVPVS
Assay: nsRBNS (natural sequence RNA bind-n-seq); RBNS binding buffer (assumed for nsRBNS): 25 mM Tris pH 7.5, 150 mM KCl, 3 mM MgCl2, 0.01% Triton X-100, 500 ug/ml BSA, 20 U/ml SUPERase-In, 4 C; UNK is unkempt and MSI1 is Musashi-1; names of the RNAs are library labels; protein concentration not given here; high values mean tight binding

| Binder | binding signal [enrichment R] |
| --- | --- |
| B1 | 0.841 |
| B2 | 1.49 |
| B3 | 0.632 |
| B4 | 1.37 |
| B5 | 0.545 |
| B6 | 0.479 |
| B7 | 0.371 |
| B8 | 0.386 |
| B9 | 0.967 |
| B10 | 1.21 |
| B11 | 0.673 |
| B12 | 0.536 |
| B13 | 0.428 |
| B14 | 0.63 |
| B15 | 0.752 |
| B16 | 0.626 |
| B17 | 0.795 |
| B18 | 0.554 |
| B19 | 0.653 |
| B20 | 0.349 |
| B21 | 0.553 |
| B22 | 0.9 |
